From the supplement of paper PMC9446081
The campaign covered roughly 39,000 compounds. About 220 (0.56%) showed activity. Some of the results follow.

These compounds were tested on Escherichia coli K-12 BW25113 (assay: relative growth (OD600 normalised to plate interquartile mean) (fraction); higher = less growth inhibition, active = 0.2 or less). Details: 50 µM; LB; incubation time: overnight (16-24 h).
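Further: static incubation at 37 °C against the wild-type strain, values averaged over two biological replicates.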

Row | Compound | relative growth
1 | CC(C)[C@@H](CS(=O)(=O)C(C)C)N1C(=O)[C@@](C)(CC(=O)O)C[C@H](c2cccc(Cl)c2)[C@H]1c1ccc(Cl)cc1 | inactive: 1
2 | C[C@@H]1CN([C@H](C)CO)C(=O)c2cccc(NC(=O)c3ccncc3)c2O[C@@H]1CN(C)Cc1ccc(-c2ccccc2)cc1 | inactive: 0.996
3 | Cc1noc(C)c1S(=O)(=O)N(C)C[C@H]1OCCCC[C@H](C)Oc2ccc(NC(=O)Nc3ccc(F)cc3)cc2C(=O)N([C@@H](C)CO)C[C@@H]1C | inactive: 1.03
4 | O=C(C[C@H]1C[C@H]2c3cc(NC(=O)Nc4ccc(C(F)(F)F)cc4)ccc3O[C@H]2[C@H](CO)O1)NCc1ccc(Cl)cc1 | inactive: 0.973
5 | C[C@@H]1CN([C@H](C)CO)C(=O)c2c(c3ccccc3n2C)-c2ccccc2CO[C@@H]1CN(C)Cc1ccc(Oc2ccccc2)cc1 | inactive: 1.01
6 | CN(C)CCCNC(=O)C[C@@H]1CC[C@H]2[C@@H](COc3ccc(NC(=O)c4ccc5c(c4)OCO5)cc3C(=O)N2C)O1 | inactive: 0.996
7 | Cc1noc(C)c1NC(=O)Nc1ccc2c(c1)C(=O)N([C@H](C)CO)C[C@@H](C)[C@@H](CN(C)C(=O)Nc1ccccc1)OCCCC[C@@H](C)O2 | inactive: 1.02
8 | CO[C@H]1CN(C)C(=O)c2ccc(NC(=O)c3ccccc3)cc2OC[C@@H](C)N(C(=O)CN(C)C)C[C@@H]1C | inactive: 0.994
9 | Cc1cc(C(=O)Nc2cccc3c2O[C@@H](CN(C)Cc2ccncc2)[C@@H](C)CN([C@H](C)CO)C3=O)n(C)n1 | inactive: 1
10 | C[C@H](CO)N1C[C@H](C)[C@@H](CN(C)Cc2ccc(Oc3ccccc3)cc2)Oc2ccc(NC(=O)NC3CCCCC3)cc2C1=O | inactive: 1.01
11 | Cc1ccc(S(=O)(=O)Nc2ccc3c(c2)C(=O)N([C@@H](C)CO)C[C@@H](C)[C@H](CN(C)C(=O)Cc2ccccc2)OCCCC[C@@H](C)O3)cc1 | inactive: 1.01
12 | COc1ccc2nccc(Cl)c2c1 | inactive: 0.986
13 | O=C(NCCn1ncc2c(=O)n(Cc3ccccc3)cnc21)c1ccc(S(=O)(=O)N2CCOCC2)cc1 | inactive: 0.985
14 | C[C@H]1CN([C@@H](C)CO)C(=O)c2cc(C#Cc3cccc(F)c3)cnc2O[C@H]1CN(C)C(=O)C1CCOCC1 | inactive: 0.823
15 | C[C@@H]1CCCCO[C@@H](CN(C)CC2CCCCC2)[C@@H](C)CN([C@H](C)CO)C(=O)c2cc(NC(=O)CCCN(C)C)ccc2O1 | inactive: 0.982
16 | Cc1ccc(S(=O)(=O)N(C)C[C@@H]2OCCCC[C@@H](C)Oc3ccc(NC(=O)Nc4ccc(C(F)(F)F)cc4)cc3C(=O)N([C@H](C)CO)C[C@H]2C)cc1 | inactive: 0.983
17 | C[C@@H]1CN([C@H](C)CO)S(=O)(=O)c2ccc(-c3ccc(C(=O)N(C)C)cc3)cc2O[C@H]1CN(C)C(=O)C1CCC1 | inactive: 0.987
18 | C[C@H]1CN([C@@H](C)CO)C(=O)c2cc(NC(=O)c3ccncc3)ccc2O[C@H]1CN(C)C(=O)Nc1ccc2c(c1)OCO2 | inactive: 1
19 | C[C@H]1CN([C@@H](C)CO)C(=O)c2cc(NC(=O)Cc3ccccc3)ccc2O[C@H]1CN(C)Cc1ccc(C(=O)Nc2ccccc2N)cc1 | inactive: 1.01

Row | Compound | relative growth
20 | COc1ccc(NC(=O)N(C)C[C@@H]2Oc3ccc(NS(=O)(=O)c4c(C)noc4C)cc3C(=O)N([C@@H](C)CO)C[C@@H]2C)cc1 | inactive: 0.997
21 | Cc1ccc(S(=O)(=O)N(C)C[C@@H]2Oc3c(NS(=O)(=O)c4ccc(F)cc4)cccc3C(=O)N([C@@H](C)CO)C[C@@H]2C)cc1 | inactive: 1.01
22 | COc1ccc(CN(C)C[C@@H]2OCCCC[C@@H](C)Oc3ccc(NC(=O)Nc4ccc5c(c4)OCO5)cc3C(=O)N([C@H](C)CO)C[C@H]2C)cc1 | inactive: 1
23 | Oc1cc(O)cc(O)c1 | inactive: 1
24 | COc1ccc(S(=O)(=O)Nc2ccc3c(c2)CC(=O)N([C@@H](C)CO)C[C@@H](C)[C@H](CN(C)S(=O)(=O)c2ccccc2)O3)cc1 | inactive: 1.01
25 | CCc1c(O)cc(O)c(C(=O)c2ccc(OCCN3CCOCC3)c(OC)c2)c1CC(=O)N(CCOC)CCOC | inactive: 0.937
26 | CC(C)(C)NCCCCOc1ccc(Cl)cc1C(C)(C)C | inactive: 0.798
27 | C[C@H]1CCCCO[C@@H](CN(C)Cc2ccc(C(F)(F)F)cc2)[C@@H](C)CN([C@@H](C)CO)C(=O)c2cc(NS(=O)(=O)c3cn(C)cn3)ccc2O1 | inactive: 0.987
28 | CC(C)NC(=O)N(C)C[C@H]1OCCCC[C@@H](C)Oc2ccc(NC(=O)Nc3ccccc3)cc2C(=O)N([C@H](C)CO)C[C@@H]1C | inactive: 0.992
29 | COc1ccc(CN(C)C[C@@H]2OCCCC[C@@H](C)Oc3ccc(NS(=O)(=O)c4ccc(C)cc4)cc3C(=O)N([C@H](C)CO)C[C@@H]2C)cc1 | inactive: 0.971
30 | CO[C@@H]1[C@H](O[P@@](=O)(OC[C@H]2O[C@@H](n3cnc4c(N)ncnc43)C[C@@H]2O)SCOC(=O)OC(C)C)[C@@H](CO)O[C@H]1n1ccc(=O)[nH]c1=O | inactive: 1.01
31 | COc1ccc(OC)c(C(O)CNC(=O)CN)c1.Cl (stereo not drawn) | inactive: 1.12
32 | Cc1cc(C(=O)O)c(C#N)c(N)n1 | inactive: 0.955
33 | C[C@H]1CN([C@@H](C)CO)C(=O)c2cccc(NC(=O)Nc3ccc(F)cc3)c2O[C@H]1CN(C)Cc1ccc(C(F)(F)F)cc1 | inactive: 1.01
34 | COc1c(OCCCN2CCOCC2)ccc2c1N=C(NC(=O)c1cnc(N)nc1)N1CCN=C21 | inactive: 0.996
35 | C[C@H](CO)N1C[C@H](C)[C@@H](CN(C)CC2CCCCC2)Oc2ccc(NS(=O)(=O)c3cn(C)cn3)cc2CC1=O | inactive: 1.03
36 | COc1ccc(S(=O)(=O)Nc2ccc3c(c2)C(=O)N([C@H](C)CO)C[C@@H](C)[C@H](CN(C)Cc2ccncc2)O3)cc1 | inactive: 0.987
37 | C[C@@H]1CCCCO[C@H](CN(C)Cc2ccc(Cl)c(Cl)c2)[C@@H](C)CN([C@@H](C)CO)C(=O)c2cc(NS(=O)(=O)c3ccc(Cl)cc3)ccc2O1 | inactive: 1.03
38 | C[C@@H]1CN([C@H](C)CO)C(=O)c2cc(NS(=O)(=O)c3ccccc3)ccc2O[C@@H](C)CCCCO[C@H]1CN(C)C(=O)Nc1ccc2c(c1)OCO2 | inactive: 1.02
